# Laboratory results as given in ChEMBL document CHEMBL1201862, “PubChem BioAssay data set” (2004).
# Tested on: NCI-H322M
# Test: growth of human tumour cells (NCI), 48 h
row,SMILES,GI50
1,CC(C)(C)OCC1NC(=O)[C@@H]2Cc3c([nH]c4ccccc34)C(c3ccccc3)N2C1=O (some centres undefined),inactive: > 50 µM
2,Cc1cc(-c2cc(C)c(O)c(C(C)(C)C)c2)cc(C(C)(C)C)c1O,inactive: 13.5 µM and inactive: 15.4 µM
3,COC(=O)c1c(C(=O)OC)c2cc(C(=O)c3ccccc3)ccn2c1Cl,inactive: > 100 µM
4,COc1cccc(C2c3cc4c(cc3OC(NNC(N)=O)C2C)OCO4)c1O (centres undefined),inactive: 2.78 µM
5,COC(=O)c1ccc2c(O)c(O)ccc2c1,inactive: 17.2 µM
6,CCCCCCCCCCCCCC(=O)NO,inactive: 16.9 µM
7,Cn1cncc1CC1COC(=O)C1C(O)c1ccccc1 (centres undefined),inactive: > 100 µM
8,COc1ccc(/C=C/C(=O)CCN2CCN(CCC(=O)/C=C/c3ccc(OC)cc3)CC2)cc1,inactive: 26 µM
9,O=C(N(C1=CCCC1)N(c1ccccc1)c1ccccc1)C(F)(F)F,inactive: 21.7 µM
10,CC(OC(C)(C)C)[C@H](NC(=O)OCc1ccccc1)C(=O)NC(OCc1ccccc1)[C@H]1COC(C)(C)O1 (some centres undefined),inactive: > 10 µM
11,C=CCNC(=O)NC1=CSC2=NC(=O)C3(NN12)c1ccccc1-c1ccccc13,inactive: > 10 µM
12,N=C(N)NC(=N)Nc1c(F)c(F)c(F)c(F)c1F,inactive: > 100 µM
13,O=P1(c2ccccc2)CCCCC1,inactive: > 100 µM
14,COc1ccc(C2c3cc4c(cc3C(O)C3CCC(=O)N23)OCO4)cc1 (centres undefined),inactive: > 100 µM
15,Cc1ccccc1/N=C/c1ccc(N(CCC#N)S(=O)(=O)c2ccccc2)cc1,inactive: > 100 µM
16,C/C1=C/C(C)CC(C)OC(=O)C(C)NC(=O)C(Cc2ccc(O)c(I)c2)N(C)C(=O)C(C)NC(=O)C(C)C1 (centres undefined),inactive: 1.9 µM
17,Cc1ncc(-c2nnnn2-c2ccccc2)c(C(=O)O)n1,inactive: > 100 µM
18,O=C(Cl)C1=C(c2ccccc2)C1c1ccccc1 (centres undefined),inactive: > 100 µM
19,O=C(Nc1ccc(Cl)cc1)c1cc([N+](=O)[O-])ccc1O,inactive: 4.04 µM
20,O=C(c1ccc(Cl)cc1)N(C(=S)N1CCN(c2ccccc2)CC1)C1CCCCC1,inactive: > 100 µM
21,COc1ccc(N2C(=O)C3c4[nH]c5ccc(F)cc5c4C4CCC(c5ccccc5)CC4C3C2=O)cc1 (centres undefined),inactive: 72.1 µM
22,COC1=CC(=O)c2ccc(C(C)C)cc2C1(C)C1=NC(C)(C)CO1 (centres undefined),inactive: > 100 µM
23,ClCc1ccc(C2OCCO2)cc1,inactive: 21.6 µM

row,SMILES,GI50
1,CC[C@@H]1C[C@@H](O)[C@@H]2[C@H](O)[C@H](O)CN2C1,inactive: > 100 µM
2,Clc1ccc2c(NCCCCN3OC3c3ccccc3)ccnc2c1 (centres undefined),inactive: 9.44 µM
3,O=C(c1ccccc1)[C@H]1Nc2ccc(Cl)cc2C2c3ccccc3CC21 (some centres undefined),inactive: 45.6 µM
4,CC(C)(C)CN1[C@@H]2CCCC[C@H]2N(CC(C)(C)C)P1(=O)Cc1ccccc1,inactive: 14.7 µM
5,Cc1cccc(C)c1NC(=O)/C=C/c1ccccc1,inactive: > 100 µM
6,CN(CCCNC(=O)c1nn(-c2ccc(Cl)cc2Cl)c2c1ccc1ccccc12)CCCNC(=O)c1nn(-c2ccc(Cl)cc2Cl)c2c1ccc1ccccc12,inactive: 1.69 µM
7,CCCC(=O)Nc1cc(/C=C/C(=O)N2CC(CCl)c3c2cc(OC(C)=O)c2[nH]cc(C)c32)n(C)c1 (centres undefined),active: 5.01e-05 µM
8,Cc1cc2[n-][n+]3ncc(-c4ccccc4)n3c2cc1[N+](=O)[O-],inactive: > 100 µM
9,CC(=O)OCC1OC(Nc2ccc3nc(C)n(-c4ccccc4)c(=O)c3c2)C(OC(C)=O)C(OC(C)=O)C1OC(C)=O (centres undefined),inactive: > 50 µM
10,O=c1cc(NCc2ccncc2)[nH]c(=O)[nH]1,inactive: > 100 µM
11,NC1=NCC(c2ccccn2)C1c1ccc(F)cc1 (centres undefined),inactive: > 100 µM
12,COc1nc(N=P(c2ccccc2)(c2ccccc2)c2ccccc2)cc(=O)[nH]1,inactive: > 100 µM
13,Cc1nc(N)sc1/N=N/c1ccccc1Br,inactive: 39.6 µM
14,Cc1csc2c(P(=O)(OC(C)C)OC(C)C)c(-c3ccccc3)cn12,inactive: 12.1 µM
15,Cc1cc(N)c(C)c2c1[nH]c1ccc(O)cc12,inactive: > 100 µM
16,CC(Oc1ccc(Cl)cc1Cl)C(=O)NN1C(=O)CSC1c1ccccc1 (centres undefined),inactive: 55.8 µM
17,COc1cccc2c1Cc1cc(-c3ccccc3)[n+](C)n1-2,inactive: 24.3 µM
18,CCOC(=O)NC(Nc1ccc(S(=O)(=O)Nc2ncccn2)cc1)(C(=O)OCC)C(F)(F)F (centres undefined),inactive: > 100 µM
19,COC1OC(COCc2ccc(Cl)cc2)C(OCc2ccc(Cl)cc2)C1N=[N+]=[N-] (centres undefined),inactive: > 100 µM
20,Nc1nc(Cl)c(CO)c(NCC2(CO)CC(CCc3ccccc3)C2)n1 (centres undefined),inactive: 24.7 µM
21,Cc1nn2c(nc1=O)sc1ccc3ccccc3c12,inactive: > 100 µM
22,Cc1nc2c(=S)n(C)ncc2[nH]1,inactive: > 100 µM
23,NC(=O)Nc1cc(O)ccc1/N=N/c1ccc(S(=O)(=O)Nc2ccccn2)cc1,inactive: > 100 µM

row,SMILES,GI50
1,CC(=O)OCC1OC(n2c(C)c(/N=N/c3ccc(C)cc3)c(C)c(C#N)c2=S)C(OC(C)=O)C(OC(C)=O)C1OC(C)=O (centres undefined),inactive: > 100 µM
2,O=C1c2ccccc2C(=O)N1NC1=NCCN1,inactive: > 100 µM
3,CCOC(=O)C1(C)CCCCC(=O)N1 (centres undefined),inactive: > 100 µM
4,Cc1ccc2c3ccc4c(c3n(C)c2c1)C(=O)C=CC4=O,inactive: > 10 µM
5,O=C(Cn1c2ccc(Br)cc2c2nc3ccccc3nc21)N1CCOCC1,inactive: > 100 µM
6,CSCC[C@@H]1C(=O)N(C)[C@H](C(C)(C)C)N1C(=O)c1ccccc1,inactive: > 100 µM
7,O=c1c2ccccc2c(=O)n2n1-c1cccc(c1)CSSCc1cccc-2c1,inactive: > 10 µM
8,CN1C2CC(=O)CC1[C@H](O)[C@@H]2O,inactive: > 100 µM
9,Cc1cc(C(=O)NCCN(C)C)c2nc3ccccc3cc2c1,inactive: 2.13 µM
10,[O-][n+]1onc(-c2ccccc2)c1CN1CCOCC1,inactive: > 100 µM
11,COC(=O)CCC(=O)CC(=O)C(=O)Nc1c(Cl)cc([N+](=O)[O-])cc1Cl,inactive: > 100 µM
12,Cc1cc(C)c2nccc(NCCCN(C)C)c2c1[N+](=O)[O-],inactive: 39.4 µM
13,Cc1ccc(N2CCC3(CC2)OCCO3)cc1,inactive: > 100 µM
14,C/C(=N\[N+](C)(C)C)C(c1ccccc1)C1(c2ccccc2)C(c2ccccc2)=C1c1ccccc1 (centres undefined),inactive: > 100 µM
15,Clc1cc(Cl)cc(Nc2nc3ccccc3nc2-c2cccs2)c1,inactive: 28.5 µM
16,COc1ccc2c(c1)/C(=C\c1c(Cl)nc3sc(C)cn13)C(=O)N2,inactive: 6.85 µM
17,O=C(NC1CC1)c1c(O)[nH]c(=S)[nH]c1=O,inactive: > 100 µM
18,O=C1CCc2nc3ncccc3cc2C1,inactive: > 100 µM
19,COc1ccccc1/C=C1\CCC(Cc2ccccc2)(CN(C)C)C1=O (centres undefined),inactive: 4.27 µM
20,COC12c3ccccc3-c3ccccc3C1[C@@H](C(=O)O)[C@H]2C(=O)O (some centres undefined),inactive: > 10 µM
21,COc1cc2c(c(OC)c1OC)-c1ccc(SC)c(=O)cc1[C@@H](NCc1ccccc1[N+](=O)[O-])CC2,active: 0.027 µM
22,CC(=O)CC(=O)Nn1c(-c2cccs2)nc2ccc(I)cc2c1=O,inactive: > 50.8 µM
23,CCNC(=O)/C(=C/c1ccc(OC)cc1)c1cc(OC)c(OC)c(OC)c1,inactive: 27.5 µM

# Where “and” joins values, the source holds several entries; their conditions need not be identical. Equal values may be shown once.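 Exposure lasted 48 hours, with cells grown in 96-well plates and compounds tested at five concentrations. GI50: concentration for 50% inhibition of growth.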 Calls of active or inactive are those of the source. Cut-off read from the data, not from the text of the source: active = GI50 up to about 1.1 µM and inactive = higher.
